Measured values as given in paper PMC10384177.
These are yes or no findings as the source states them, for the method shown. Some binding calls cover weakened binding; strength is not graded here. Sequences can lack the tags named with a protein.

T1: PIA1 (clade F PP2C protein phosphatase), BD-PIA1 two-hybrid fusion (Arabidopsis thaliana) (UniProt Q9SIU8)
T1 sequence: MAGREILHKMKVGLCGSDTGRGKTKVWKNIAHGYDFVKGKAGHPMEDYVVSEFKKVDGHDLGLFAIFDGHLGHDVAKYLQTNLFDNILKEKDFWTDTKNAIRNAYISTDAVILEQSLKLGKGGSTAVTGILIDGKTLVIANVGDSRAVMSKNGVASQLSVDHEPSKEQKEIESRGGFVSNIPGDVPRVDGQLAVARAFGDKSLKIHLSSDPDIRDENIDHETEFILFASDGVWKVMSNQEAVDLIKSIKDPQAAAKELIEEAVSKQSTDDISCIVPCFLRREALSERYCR

B1: RCAR1, two-hybrid fusion (receptor, UniProt Q84MC7 1-187)
chain: MMDGVEGGTAMYGGLETVQYVRTHHQHLCRENQCTSALVKHIKAPLHLVWSLVRRFDQPQKYKPFVSRCTVIGDPEIGSLREVNVKSGLPATTSTERLELLDDEEHILGIKIIGGDHRLKNYSSILTVHPEIIEGRAGTMVIESFVVDVPQGNTKDETCYFVEALIRCNLKSLADVSERLASQDITQ
B2: SnRK2.9, two-hybrid fusion (enzyme, UniProt O64812 1-339)
chain: MEKYEMVKDLGFGNFGLARLMRNKQTNELVAVKFIDRGYKIDENVAREIINHRALNHPNIVRFKEVVLTPTHLGIVMEYAAGGELFERISSVGRFSEAEARYFFQQLICGVHYLHALQICHRDLKLENTLLDGSPAPRLKICDFGYSKSSVLHSNPKSTVGTPAYIAPEVFCRSEYDGKSVDVWSCGVALYVMLVGAYPFEDPKDPRNFRKTVQKIMAVNYKIPGYVHISEDCRKLLSRIFVANPLHRSTLKEIKSHAWFLKNLPRELKEPAQAIYYQRNVNLINFSPQRVEEIMKIVGEARTIPNLSRPVESLGSDKKDDDEEEYLDANDEEWYDDYA
B3: SnRK2.1, two-hybrid fusion (enzyme, UniProt P43292 1-353)
chain: MDKYDVVKDLGAGNFGVARLLRHKDTKELVAMKYIERGRKIDENVAREIINHRSLKHPNIIRFKEVILTPTHLAIVMEYASGGELFDRICTAGRFSEAEARYFFQQLICGVDYCHSLQICHRDLKLENTLLDGSPAPLLKICDFGYSKSSILHSRPKSTVGTPAYIAPEVLSRREYDGKHADVWSCGVTLYVMLVGAYPFEDPNDPKNFRKTIQRIMAVQYKIPDYVHISQECKHLLSRIFVTNSAKRITLKEIKNHPWYLKNLPKELLESAQAAYYKRDTSFSLQSVEDIMKIVGEARNPAPSTSAVKSSGSGADEEEEEDVEAEVEEEEDDEDEYEKHVKEAQSCQESDKA
B4: SnRK2.4, two-hybrid fusion (enzyme, UniProt P43291 1-363)
chain: MDKYELVKDIGAGNFGVARLMKVKNSKELVAMKYIERGPKIDENVAREIINHRSLRHPNIIRFKEVVLTPTHLAIAMEYAAGGELFERICSAGRFSEDEARYFFQQLISGVSYCHAMQICHRDLKLENTLLDGSPAPRLKICDFGYSKSSLLHSRPKSTVGTPAYIAPEVLSRREYDGKMADVWSCGVTLYVMLVGAYPFEDQEDPKNFRKTIQKIMAVQYKIPDYVHISQDCKNLLSRIFVANSLKRITIAEIKKHSWFLKNLPRELTETAQAAYFKKENPTFSLQTVEEIMKIVADAKTPPPVSRSIGGFGWGGNGDADGKEEDAEDVEEEEEEVEEEEDDEDEYDKTVKEVHASGEVRIS
B5: SnRK2.5, two-hybrid fusion (enzyme, UniProt Q9FFP9 1-360)
chain: MDKYEVVKDLGAGNFGVARLLRHKETKELVAMKYIERGRKIDENVAREIINHRSLRHPNIIRFKEVILTPTHLAIVMEYASGGELFERICNAGRFSEAEARYFFQQLICGVDYCHSLQICHRDLKLENTLLDGSPAPLLKICDFGYSKSSLLHSRPKSTVGTPAYIAPEVLSRREYDGKHADVWSCGVTLYVMLVGGYPFEDPDDPRNFRKTIQRIMAVQYKIPDYVHISQECRHLLSRIFVTNSAKRITLKEIKKHPWYLKNLPKELTEPAQAAYYKRETPSFSLQSVEDIMKIVGEARNPAPSSNAVKGFDDDEEDVEDEVEEEEEEEEEEEEEEEEEEDEYEKHVKEAHSCQEPPKA
B6: RCAR3, two-hybrid fusion (receptor, UniProt Q9FGM1 1-188)
chain: MEANGIENLTNPNQEREFIRRHHKHELVDNQCSSTLVKHINAPVHIVWSLVRRFDQPQKYKPFISRCVVKGNMEIGTVREVDVKSGLPATRSTERLELLDDNEHILSIRIVGGDHRLKNYSSIISLHPETIEGRIGTLVIESFVVDVPEGNTKDETCYFVEALIKCNLKSLADISERLAVQDTTESRV
B7: RCAR14, two-hybrid fusion (receptor, UniProt O80992 1-190)
chain: MSSSPAVKGLTDEEQKTLEPVIKTYHQFEPDPTTCTSLITQRIHAPASVVWPLIRRFDNPERYKHFVKRCRLISGDGDVGSVREVTVISGLPASTSTERLEFVDDDHRVLSFRVVGGEHRLKNYKSVTSVNEFLNQDSGKVYTVVLESYTVDIPEGNTEEDTKMFVDTVVKLNLQKLGVAATSAPMHDDE
B8: SnRK2.2, two-hybrid fusion (enzyme, UniProt Q39192 1-362)
chain: MDPATNSPIMPIDLPIMHDSDRYDFVKDIGSGNFGVARLMTDRVTKELVAVKYIERGEKIDENVQREIINHRSLRHPNIVRFKEVILTPSHLAIVMEYAAGGELYERICNAGRFSEDEARFFFQQLISGVSYCHAMQICHRDLKLENTLLDGSPAPRLKICDFGYSKSSVLHSQPKSTVGTPAYIAPEILLRQEYDGKLADVWSCGVTLYVMLVGAYPFEDPQEPRDYRKTIQRILSVTYSIPEDLHLSPECRHLISRIFVADPATRITIPEITSDKWFLKNLPGDLMDENRMGSQFQEPEQPMQSLDTIMQIISEATIPTVRNRCLDDFMADNLDLDDDMDDFDSESEIDVDSSGEIVYAL
B9: SnRK2.3, two-hybrid fusion (enzyme, UniProt Q39193 1-361)
chain: MDRAPVTTGPLDMPIMHDSDRYDFVKDIGSGNFGVARLMRDKLTKELVAVKYIERGDKIDENVQREIINHRSLRHPNIVRFKEVILTPTHLAIIMEYASGGELYERICNAGRFSEDEARFFFQQLLSGVSYCHSMQICHRDLKLENTLLDGSPAPRLKICDFGYSKSSVLHSQPKSTVGTPAYIAPEVLLRQEYDGKIADVWSCGVTLYVMLVGAYPFEDPEEPRDYRKTIQRILSVKYSIPDDIRISPECCHLISRIFVADPATRISIPEIKTHSWFLKNLPADLMNESNTGSQFQEPEQPMQSLDTIMQIISEATIPAVRNRCLDDFMTDNLDLDDDMDDFDSESEIDIDSSGEIVYAL
B10: SnRK2.7, two-hybrid fusion (enzyme, UniProt Q9SMQ4 1-350)
chain: MERYDILRDLGSGNFGVAKLVREKANGEFYAVKYIERGLKIDEHVQREIINHRDLKHPNIIRFKEVFVTPTHLAIVMEYAAGGELFERICNAGRFSEDEGRYYFKQLISGVSYCHAMQICHRDLKLENTLLDGSPSSHLKICDFGYSKSSVLHSQPKSTVGTPAYVAPEVLSRKEYNGKIADVWSCGVTLYVMLVGAYPFEDPEDPRNIRNTIQRILSVHYTIPDYVRISSECKHLLSRIFVADPDKRITVPEIEKHPWFLKGPLVVPPEEEKCDNGVEEEEEEEEKCRQSVEEIVKIIEEARKGVNGTDNNGGLGLIDGSIDLDDIDDADIYDDVDDDEERNGDFVCAL
B11: SnRK2.10, two-hybrid fusion (enzyme, UniProt Q9C958 1-361)
chain: MDKYELVKDIGAGNFGVARLMRVKNSKELVAMKYIERGPKIDENVAREIINHRSLRHPNIIRFKEVVLTPTHIAIAMEYAAGGELFERICSAGRFSEDEARYFFQQLISGVSYCHAMQICHRDLKLENTLLDGSPAPRLKICDFGYSKSSLLHSMPKSTVGTPAYIAPEVLSRGEYDGKMADVWSCGVTLYVMLVGAYPFEDQEDPKNFKKTIQRIMAVKYKIPDYVHISQDCKHLLSRIFVTNSNKRITIGDIKKHPWFLKNLPRELTEIAQAAYFRKENPTFSLQSVEEIMKIVEEAKTPARVSRSIGAFGWGGGEDAEGKEEDAEEEVEEVEEEEDEEDEYDKTVKQVHASMGEVRVS
B12: RCAR5, two-hybrid fusion (receptor, UniProt Q9FJ50 1-161)
chain: METSQKYHTCGSTLVQTIDAPLSLVWSILRRFDNPQAYKQFVKTCNLSSGDGGEGSVREVTVVSGLPAEFSRERLDELDDESHVMMISIIGGDHRLVNYRSKTMAFVAADTEEKTVVVESYVVDVPEGNSEEETTSFADTIVGFNLKSLAKLSERVAHLKL
B13: RCAR6, two-hybrid fusion (receptor, UniProt Q9FJ49 1-159)
chain: MKTSQEQHVCGSTVVQTINAPLPLVWSILRRFDNPKTFKHFVKTCKLRSGDGGEGSVREVTVVSDLPASFSLERLDELDDESHVMVISIIGGDHRLVNYQSKTTVFVAAEEEKTVVVESYVVDVPEGNTEEETTLFADTIVGCNLRSLAKLSEKMMELT
B14: RCAR8, two-hybrid fusion (receptor, UniProt Q9FLB1 1-203)
chain: MRSPVQLQHGSDATNGFHTLQPHDQTDGPIKRVCLTRGMHVPEHVAMHHTHDVGPDQCCSSVVQMIHAPPESVWALVRRFDNPKVYKNFIRQCRIVQGDGLHVGDLREVMVVSGLPAVSSTERLEILDEERHVISFSVVGGDHRLKNYRSVTTLHASDDEGTVVVESYIVDVPPGNTEEETLSFVDTIVRCNLQSLARSTNRQ
B15: RCAR9, two-hybrid fusion (receptor, UniProt Q8S8E3 1-215)
chain: MPTSIQFQRSSTAAEAANATVRNYPHHHQKQVQKVSLTRGMADVPEHVELSHTHVVGPSQCFSVVVQDVEAPVSTVWSILSRFEHPQAYKHFVKSCHVVIGDGREVGSVREVRVVSGLPAAFSLERLEIMDDDRHVISFSVVGGDHRLMNYKSVTTVHESEEDSDGKKRTRVVESYVVDVPAGNDKEETCSFADTIVRCNLQSLAKLAENTSKFS
B16: RCAR10, two-hybrid fusion (receptor, UniProt O80920 1-207)
chain: MLAVHRPSSAVSDGDSVQIPMMIASFQKRFPSLSRDSTAARFHTHEVGPNQCCSAVIQEISAPISTVWSVVRRFDNPQAYKHFLKSCSVIGGDGDNVGSLRQVHVVSGLPAASSTERLDILDDERHVISFSVVGGDHRLSNYRSVTTLHPSPISGTVVVESYVVDVPPGNTKEETCDFVDVIVRCNLQSLAKIAENTAAESKKKMSL
B17: RCAR13, two-hybrid fusion (receptor, UniProt Q9SSM7 1-209)
chain: MNLAPIHDPSSSSTTTTSSSTPYGLTKDEFSTLDSIIRTHHTFPRSPNTCTSLIAHRVDAPAHAIWRFVRDFANPNKYKHFIKSCTIRVNGNGIKEIKVGTIREVSVVSGLPASTSVEILEVLDEEKRILSFRVLGGEHRLNNYRSVTSVNEFVVLEKDKKKRVYSVVLESYIVDIPQGNTEEDTRMFVDTVVKSNLQNLAVISTASPT

These binders were tested against T1, PIA1 (clade F PP2C protein phosphatase), BD-PIA1 two-hybrid fusion (Arabidopsis thaliana) (assay: two-hybrid; yeast AH109, BD-PIA1 as bait; in the presence of ABA; growth on selection media; 28 °C).
With B1 the binding was “binds”.
With B2 the binding was “binds”.
For B3, the binding was “binds”.
In the case of B4, the binding is reported as “binds”.
In the case of B5, the binding is reported as “binds”.

Each binder was assayed against T1, PIA1 (clade F PP2C protein phosphatase), BD-PIA1 two-hybrid fusion (Arabidopsis thaliana) (assay: two-hybrid; yeast AH109, BD-PIA1 as bait; no exogenous ABA; growth on selection media after SD/-Trp/-Leu, SD/-Trp/-Leu/-His with 3-AT, X-alpha-Gal staining; 28 °C).
B1 was tested, and the binding was “binds”.
With B2 the binding was “binds”.
B3 was tested, and the binding was “binds”.
With B4 the binding was “binds”.
For B5, the binding was “binds”.
In the case of B6, the binding is reported as “no binding”.
With B7 the binding was “no binding”.
For B8, the binding was “no binding”.
For B9, the binding was “no binding”.
In the case of B10, the binding is reported as “no binding”.
With B11 the binding was “no binding”.
For B12, the binding was “no binding”.
With B13 the binding was “no binding”.
In the case of B14, the binding is reported as “no binding”.
In the case of B15, the binding is reported as “no binding”.
For B16, the binding was “no binding”.
In the case of B17, the binding is reported as “no binding”.
